# Measured values taken from PubChem BioAssay (NCATS).
# “And” between values parts separate entries of the source, which are not always exact repeats. Identical values can stand only once. The shares of active, inactive and inconclusive entries below differ from those in the screen. For part of these data: Potencies of inconclusive entries are doubtful fits and often do not repeat. A structure can be active in one record and inactive in another. The source made the active and inactive calls. Unless noted, the call rests on the fitted dose curve; in most records, active means well fitted curve in the direction sought with a large enough effect; inconclusive means small, poorly fitted or top-dose-only effect, or another doubt; inactive means no such curve, though single readings can be large; an effect the other way counts as inactive or inconclusive.
# Assays:
# [1] = NS1 protein of Zika virus - qHTS assay to identify small molecule inhibitors in human HEK 293 cells (AID 1347053); further: nearly all actives have a fitted effect of over 55% in size; further: potency means the concentration at half of the fitted maximal effect
# Procedure, shortened: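 Inhibition of NS1 expression was scored in HEK 293 cells given compound 1 h ahead of MR766 virus (MOI = 0.5). Following 24 h at 37 C, two anti-NS1 antibodies generated a TR-FRET signal, scaled between uninfected and infected controls.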
# [2] = qHTS of pediatric cancer cell lines to identify multiple opportunities for drug repurposing: Primary screen for DAOY cells (AID 1347090); details: DAOY medulloblastoma viability, CellTiter-Glo luminescence, 48 h; activity change, negative = cytotoxic: at 46 µM (top of the series) unless noted; further: nearly all actives have a fitted effect of over 55% in size; further: potency means the concentration at half of the fitted maximal effect;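 on activity change, negative = cytotoxic: plate controls were DMSO for no effect and bortezomib for full effect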
# Procedure, shortened: (§1)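 Cell viability, CellTiter-Glo luminescence; 500-1,000 cells/well, 8- or 11-point titration, 48 h compound exposure at 37 degrees C, 5% CO2. Controls: DMSO neutral, bortezomib 2.3 µM final as positive.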
# [3] = qHTS of pediatric cancer cell lines to identify multiple opportunities for drug repurposing: Primary screen for A673 cells (AID 1347092); details: A673 Ewing sarcoma viability, CellTiter-Glo ATP luminescence, 48 h; activity change, negative = cytotoxic: at 46 µM (top of the series); further: nearly all actives have a fitted effect of over 45% in size; further: potency means the concentration at half of the fitted maximal effect; on activity change, negative = cytotoxic: on the % scale 0 is the no-effect control and ±100 the full control effect
# Procedure, shortened: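 Luminescence from CellTiter-Glo, taken after 15 min at room temperature, served as the proxy for metabolically active cells following 48 h treatment. Both potency and efficacy were taken from curves fitted to the titration data.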
# [4] = qHTS of pediatric cancer cell lines to identify multiple opportunities for drug repurposing: Primary screen for BT-37 cells (AID 1347094); further: potency means the concentration at half of the fitted maximal effect
# Procedure, shortened: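 500-1,000 cells/well; 5 h pre-incubation 37 °C/5% CO2; compound pinned; 48 h; CellTiter-Glo, 15 min RT; luminescence. MIPE 11-pt from 0.78 nM, NPC 8-pt from 0.59 nM final. Bortezomib 2.3 µM final as positive control.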
# [5] = qHTS of pediatric cancer cell lines to identify multiple opportunities for drug repurposing: Primary screen for SK-N-MC cells (AID 1347093); details: SK-N-MC viability, CellTiter-Glo luminescence, 48 h; activity change, negative = cytotoxic: at 46 µM (top of the series); further: potency means the concentration at half of the fitted maximal effect
# Procedure, shortened: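 Metabolically active cells were quantified by ATP-dependent luminescence (CellTiter-Glo, 15 min at room temperature) following 48 h treatment. Cells had been plated at 500-1,000 per well and settled for 5 h beforehand.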
# [6] = qHTS of pediatric cancer cell lines to identify multiple opportunities for drug repurposing: Primary screen for SJ-GBM2 cells (AID 1347091); further: potency means the concentration at half of the fitted maximal effect;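 on activity change, negative = cytotoxic: plate controls were DMSO neutral control for no effect and bortezomib for full effect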
# Procedure, shortened: as §1
# [7] = target: Tyrosine-protein phosphatase non-receptor type substrate 1 (Homo sapiens) + Leukocyte surface antigen CD47 (Homo sapiens) (UniProt P78324+Q08722); assay: CD47-SIRPalpha protein protein interaction - HTRF assay qHTS validation (AID 1347058; active means well fitted curve in the direction sought with a large enough effect in the signal ratio, not every such curve was filed as active; inconclusive means small, poorly fitted or top-dose-only effect, or effect the other way, or a change in a side signal; inactive means no such curve, though single readings can be large or run the other way; the % refers to the signal ratio;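 further: recombinant soluble extracellular CD47 with His tag and biotinylated SIRPalpha domains; 0% is about no effect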)
# Procedure, shortened: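 TR-FRET read (Ch1/Ch2 ratio) of soluble extracellular CD47 and Avi-biotinylated SIRPalpha domains in PBS pH 7.4 with 0.05% IGEPAL; 7-point compound titration. Sequential 30 min room-temperature steps; non-biotinylated SIRPalpha as control inhibitor.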
# Tags describe the fitted curve by direction and shape.
# UniProt P78324, sequence (P78324 whole entry, looked up, the tested form may be a part): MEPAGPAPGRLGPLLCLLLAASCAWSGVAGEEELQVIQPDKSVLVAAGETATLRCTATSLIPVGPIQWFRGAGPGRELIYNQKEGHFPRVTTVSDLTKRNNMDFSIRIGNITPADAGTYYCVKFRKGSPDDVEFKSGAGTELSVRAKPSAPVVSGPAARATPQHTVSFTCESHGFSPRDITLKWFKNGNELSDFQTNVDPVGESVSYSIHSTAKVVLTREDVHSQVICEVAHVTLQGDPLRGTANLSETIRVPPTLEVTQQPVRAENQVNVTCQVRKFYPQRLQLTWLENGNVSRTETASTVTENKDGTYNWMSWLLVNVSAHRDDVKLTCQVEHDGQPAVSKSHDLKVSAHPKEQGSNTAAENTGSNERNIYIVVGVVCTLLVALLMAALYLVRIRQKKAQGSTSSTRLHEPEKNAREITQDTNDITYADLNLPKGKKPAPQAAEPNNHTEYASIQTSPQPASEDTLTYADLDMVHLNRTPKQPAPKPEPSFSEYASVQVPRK
# UniProt P78324, sequence (Q08722 whole entry, looked up, the tested form may be a part): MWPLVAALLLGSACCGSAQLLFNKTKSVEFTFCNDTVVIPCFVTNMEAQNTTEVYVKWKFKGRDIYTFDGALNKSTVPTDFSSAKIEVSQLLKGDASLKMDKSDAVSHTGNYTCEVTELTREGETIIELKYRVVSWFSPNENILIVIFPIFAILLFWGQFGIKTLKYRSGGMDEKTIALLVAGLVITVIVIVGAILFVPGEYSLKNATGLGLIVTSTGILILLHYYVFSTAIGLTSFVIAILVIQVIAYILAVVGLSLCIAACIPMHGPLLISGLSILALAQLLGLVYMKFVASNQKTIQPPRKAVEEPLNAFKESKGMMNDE
compound,measurement,setting,value
Cc1c(O)cccc1C(=O)N[C@@H](CSc1ccccc1)[C@H](O)CN1C[C@H]2CCCC[C@@H]2C[C@@H]1C(=O)NC(C)(C)C,Potency,[1],"inconclusive: 29.6 µM [inhibitor, single point]"
same,Potency,[2],"inconclusive: 29.6 µM [cytotoxic, single point]"
same,Potency,[3],active: 23.5 µM
same,Potency,[4],"inconclusive: 38.5 µM [cytotoxic, single point]"
CN(C)C1CCN(C(=O)c2ccc(NC(=O)Nc3nc(N4CCOCC4)nc(N4CCOCC4)n3)cc2)CC1,Potency,[1],active: 0.418 µM
same,Potency,[2],"inconclusive: 0.59 µM [cytotoxic, full curve]"
same,Potency,[4],active: 0.0273 µM
CCCCC[C@H](O)C=C[C@H]1[C@H](O)CC(=O)[C@H]1CC=CCCCC(=O)O,Potency,[1],"inconclusive: 0.372 µM [inhibitor, single point]"
same,Potency,[2],inactive
same,Potency,[3],inactive
same,Potency,[5],"inconclusive: 37.2 µM [cytotoxic, single point]"
same,Potency,[4],"inconclusive: 13.7 µM [cytotoxic, partial curve]"
CCCCc1ccc(NS(=O)(=O)c2ccc(C)c(C(=O)N3CCN(c4cccc(C)c4C)CC3)c2)cc1,Potency,[1],"inconclusive: 37.2 µM [inhibitor, single point]"
same,Potency,[2],"inconclusive: 29.6 µM [cytotoxic, single point]"
same,Potency,[3],"inconclusive: 29.6 µM [cytotoxic, single point]"
same,Potency,[4],"inconclusive: 19.3 µM [cytotoxic, partial curve]"
OC(c1cc(C(F)(F)F)nc2c(C(F)(F)F)cccc12)C1CCCCN1 (stereo not drawn),Potency,[1],active: 10.5 µM
same,Potency,[6],"inconclusive: 37.2 µM [cytotoxic, single point]"
same,Potency,[5],"inconclusive: 37.2 µM [cytotoxic, single point]"
same,Potency,[4],"inconclusive: 43.2 µM [cytotoxic, single point]"
CC(CCc1ccc(O)cc1)NCCc1ccc(O)c(O)c1 (stereo not drawn),Potency,[1],"inconclusive: 2.24 µM [inhibitor, partial curve, poor fit]"
same,Potency,[6],inactive
same,Potency,[3],"inconclusive: 14.8 µM [cytotoxic, partial curve] and inconclusive: 26.6 µM [cytotoxic, single point]"
same,Potency,[5],"inconclusive: 37.2 µM [cytotoxic, single point] and inconclusive: 23.7 µM [cytotoxic, single point]"
same,Potency,[4],"inconclusive: 38.9 µM [cytotoxic, single point]"
O=C(NCc1ccncc1)C12C[C@H]3C[C@@H](C1)CC(c1ccc(Cl)cc1)(C3)C2,Potency,[1],"inconclusive: 8.33 µM [inhibitor, full curve]"
same,Potency,[2],"inconclusive: 29.6 µM [cytotoxic, single point]"
same,Potency,[6],active: 20.9 µM
same,Potency,[4],"inconclusive: 30.6 µM [cytotoxic, single point]"
CN(C)[C@@H](CCOc1cccc2ccccc12)c1ccccc1,Potency,[1],"inconclusive: 33.2 µM [inhibitor, single point]"
same,Potency,[6],"inconclusive: 18.7 µM [cytotoxic, single point]"
same,Potency,[3],"inconclusive: 18.7 µM [cytotoxic, partial curve]"
same,Potency,[5],"inconclusive: 33.5 µM [cytotoxic, single point]"
same,Potency,[4],"inconclusive: 38.9 µM [cytotoxic, single point] and inconclusive: 21.7 µM [cytotoxic, partial curve]"
NS(=O)(=O)c1ccc(Nc2nc(OCC3CCCCC3)c3[nH]cnc3n2)cc1,Potency,[1],"inconclusive: 37.2 µM [inhibitor, single point]"
same,Potency,[2],"inconclusive: 23.5 µM [cytotoxic, single point]"
same,Potency,[3],active: 23.5 µM
same,Potency,[4],"inconclusive: 30.6 µM [cytotoxic, single point]"
COc1nccc(-c2c(-c3ccc(F)cc3)ncn2C2CCC(O)CC2)n1 (stereo not drawn),Potency,[1],inactive
same,Potency,[2],inactive
same,Potency,[6],"inconclusive: 10.5 µM [cytotoxic, partial curve]"
same,Potency,[4],"inconclusive: 15.3 µM [cytotoxic, partial curve]"
CC(=O)OCC(=O)[C@@]1(O)CC[C@H]2[C@@H]3CCC4=CC(=O)C=C[C@]4(C)[C@@H]3[C@@H](O)C[C@@]21C,Potency,[1],inactive
same,Potency,[6],inactive
CC1CCC(C(=O)N(c2cc(C#CC(C)(C)C)sc2C(=O)O)C2CCC(O)CC2)CC1 (stereo not drawn),Potency,[1],"inconclusive: 37.2 µM [inhibitor, single point]"
same,Potency,[2],"inconclusive: 14.8 µM [cytotoxic, partial curve, poor fit]"
same,Potency,[5],"inconclusive: 37.2 µM [cytotoxic, single point]"
same,Potency,[4],"inconclusive: 24.3 µM [cytotoxic, single point]"
CC(C)(C)c1[nH]cnc1C=c1[nH]c(=O)c(=Cc2ccccc2)[nH]c1=O,Potency,[1],active: 0.003 µM
same,"activity change, negative = cytotoxic",[2],inconclusive: -68.2% [at 92.7 µM]
same,Potency,[4],"inconclusive: < 0.0007 µM [cytotoxic, partial curve, poor fit]"
COc1ccc(-c2oc3c(CC=C(C)C)c(OC4O[C@H](CO)[C@@H](O)[C@H](O)[C@@H]4O)cc(O)c3c(=O)c2OC2O[C@@H](C)[C@H](O)[C@@H](O)[C@@H]2O)cc1 (stereo partly drawn),Potency,[1],active: 18.7 µM
same,Potency,[2],"inconclusive: 18.7 µM [cytotoxic, partial curve]"
same,Potency,[3],"inconclusive: 29.6 µM [cytotoxic, single point]"
same,Potency,[4],"inconclusive: 24.3 µM [cytotoxic, partial curve]"
NC(=O)c1cnc(-c2ccc(C3(N)CCC3)cc2)c(-c2ccccc2)c1,Potency,[1],"inconclusive: 37.2 µM [inhibitor, single point]"
same,Potency,[6],"inconclusive: 26.4 µM [cytotoxic, single point]"
CC(C)N(CCCNC(=O)Nc1ccc(C(C)(C)C)cc1)C[C@H]1O[C@@H](n2cc(Br)c3c(N)ncnc32)[C@H](O)[C@H]1O,Potency,[1],"inconclusive: 37.2 µM [inhibitor, single point]"
same,Potency,[2],"inconclusive: 18.7 µM [cytotoxic, single point]"
same,Potency,[6],"inconclusive: 18.7 µM [cytotoxic, partial curve, poor fit]"
same,Potency,[4],active: 24.3 µM
Nc1nnc(-c2cccc(Cl)c2Cl)c(N)n1,Potency,[7],inactive
same,Potency,[2],"inconclusive: 29.6 µM [cytotoxic, single point]"
Clc1ccc(C(Cn2ccnc2)OCc2c(Cl)cccc2Cl)c(Cl)c1 (stereo not drawn),Potency,[1],active: 14.8 µM
same,Potency,[6],"inconclusive: 29.6 µM [cytotoxic, single point]"
same,Potency,[5],"inconclusive: 15 µM [cytotoxic, single point] and inconclusive: 37.2 µM [cytotoxic, single point]"
same,Potency,[4],"inconclusive: 38.9 µM [cytotoxic, partial curve, poor fit] and inconclusive: 43.2 µM [cytotoxic, single point]"
CO[C@H]1C[C@@H]2CC[C@@H](C)[C@@](O)(O2)C(=O)C(=O)N2CCCC[C@@H]2C(=O)O[C@H]([C@@H](C)C[C@@H]2CC[C@H](O)[C@H](OC)C2)CC(=O)[C@H](C)C=C(C)[C@@H](O)[C@@H](OC)C(=O)[C@H](C)C[C@H](C)C=CC=CC=C1C,Potency,[1],"inconclusive: 10.5 µM [inhibitor, partial curve, poor fit]"
same,Potency,[6],"inconclusive: 33.2 µM [cytotoxic, single point]"
same,Potency,[4],"inconclusive: 34.3 µM [cytotoxic, single point]"
CN1N=C(N)c2cn([C@@H]3O[C@H](COP(=O)(O)O)[C@@H](O)[C@@H]3O)c3ncnc1c23,Potency,[1],"inconclusive: 37.2 µM [inhibitor, single point]"
same,Potency,[6],active: 7.43 µM
same,Potency,[4],"inconclusive: 7.69 µM [cytotoxic, partial curve]"
CCn1cc(C(=O)O)c(=O)c2ccc(C)nc21,Potency,[1],inactive
same,Potency,[5],"inconclusive: 37.2 µM [cytotoxic, partial curve, poor fit]"
O=c1cc(O)c(Cl)c[nH]1,Potency,[1],inactive
same,Potency,[6],"inconclusive: 14.8 µM [cytotoxic, partial curve]"
same,Potency,[4],"inconclusive: 9.68 µM [cytotoxic, partial curve]"
